Laboratory results reported in PubChem BioAssay (NCATS).
Where “and” joins values, the source holds several entries; their conditions need not be identical. Equal values may be shown once. Inconclusive means that the source gave no clear call. Such entries were picked first, then a sample of the others. For some assays here: A potency beside an inconclusive call is a rough fit, not a confirmed value. Calls of active or inactive are those of the source. Unless noted, calls follow the shape of the dose curve; as a rule, active = well fitted curve in the direction sought with a large enough effect; inconclusive = small, poorly fitted or top-dose-only effect, or another doubt; inactive = no such curve, though single readings can be large; an effect the other way counts as inactive or inconclusive.

Legend:
[1] = Cellular Toxicity (caspase-3) HepG2 (AID 654); conditions: HepG2 caspase-3 activation, luminescence; also: potency is read from the fitted curve at half-maximal effect
Method in brief: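 qHTS, HepG2, 1500 cells/well, complete medium; cpd 16 h 37 °C; Caspase-Glo 3/7, 20 min RT; lum. Norm: DMSO vs 100 uM tamoxifen; AC50 Hill fit.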

[2] = molecular target: Vitamin D3 receptor (Homo sapiens) (UniProt P11473); assay: qHTS assay for small molecule antagonists of vitamin D receptor signaling (AID 588541; calls by dose curve;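 also: receptor activated by calcitriol during compound treatment; % is scaled to controls: 0 for no effect and ±100 for the full control effect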); conditions: HEK293T VDR-UAS-bla, beta-lactamase ratio, antagonist mode; activity change, negative = inhibition: at 76.7 µM (top of the series)
[3] = molecular target: Thyroid hormone receptor beta (Homo sapiens) (UniProt P10828); assay: qHTS assay for small molecule agonists of thyroid hormone receptor beta signaling (AID 588545; calls by dose curve;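 also: 0% = DMSO only and 100% = 10 nM T3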); conditions: TR-UAS-bla GripTite HEK 293, beta-lactamase ratio, agonist mode, 18 h; activation: at 76.7 µM, percent of T3 response, DMSO as zero
Method in brief: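 TR-UAS-bla-GripTite HEK 293 cells in medium with 2% charcoal/dextran FBS, 0.1 mM NEAA and 1 mM sodium pyruvate were treated with titrated compounds for 18 hrs at 37 C. Beta-lactamase reporter was read with CCF4 dye (ex 405, em 460/530 nm); EC50 from Hill fits.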

[4] = S16 Schwann cell viability assay (CellTiter-Glo assay) (AID 624031); conditions: S16 rat Schwann cells viability, 24 h; series mostly up to 57.5 µM;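 also: cellular ATP luminescence as a viability measure; plate controls were DMSO-treated cells for no effect and cell-free wells for full effect; nearly all actives have a fitted effect of over 70% in size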
Method in brief: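 Luminescent ATP read-out (CellTiter-Glo) after 24 h compound exposure of native S16 rat Schwann cells at 37 °C. Signals were normalized between cell-free wells and DMSO-treated cells, set as 0% activity.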

[5] = qHTS assay for cell viability of the p53RE-bla HCT-116 cell line (AID 743292); conditions: p53RE-bla HCT-116 viability, ATP luminescence, 16 h; series mostly up to 95 µM; also: potency is read from the fitted curve at half-maximal effect; nearly all actives have a fitted effect of over 55% in size
Method in brief: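 HCT-116 p53RE-bla cells seeded 4,000/well; 5 h at 37 C; compound (DMSO) added; 16 h at 37 C; CellTiter-Glo added, 30 min RT; luminescence read.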

[6] = Cell Viability - NIH 3T3 (AID 541); conditions: NIH 3T3 cell viability, qHTS; activity change, negative = cytotoxicity: at 92.2 µM (top of the series);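 also: cells exposed to compound for 40 hours; plate controls were DMSO alone for no effect and tamoxifen positive control for full effect; nearly all actives have a fitted effect of over 25% in size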
Method in brief: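 AC50 values reflect concentration-dependent loss of intracellular ATP in NIH 3T3 cells after 40 hr treatment in complete culture medium, quantified by luciferase-based luminescence.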

[7] = molecular target: Cytochrome P450 3A4 (Homo sapiens) (UniProt P08684); assay: qHTS Assay for Activators of Cytochrome P450 3A4 (AID 885); conditions: recombinant CYP3A4, Luciferin-PPXE luminescence, 60 min; also: potency is read from the fitted curve at half-maximal effect; nearly all actives have a fitted effect of over 65% in size
Method in brief: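 Steps: enzyme/substrate mix dispensed; compound added, 10 min RT; NADPH regeneration solution added, 60 min RT; luciferin detection buffer stops reaction; 20 min later luminescence measured.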

[8] = Cell Viability - LYMP1-002 - Assay at 16 hr (AID 948); conditions: LYMP1-002 lymphoblastoid cell viability; also: potency is read from the fitted curve at half-maximal effect
Method in brief: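 In this qHTS, lymphoblastoid LYMP1-002 cells (human) receive compounds for 16 hr at 37 C. Viability is taken from CellTiter-Glo ATP luminescence, and AC50 derives from standard Hill fits.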

[9] = MultiTox-Fluor Cytotoxicity Assay - LYMP1-002 - Dead Cells (AID 960); conditions: LYMP1-002 lymphoblastoid cells, dead-cell protease fluorescence; cytotoxicity (dead cells): at 46.1 µM (top of the series); also: potency is read from the fitted curve at half-maximal effect; nearly all actives have a fitted effect of over 60% in size
Method in brief: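 Acute cytotoxicity in a human lymphoblastoid line is scored as rising dead-cell protease signal after 16 hr exposure at 37 C, measured fluorometrically (485/520).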

[10] = qHTS Assay for Lipid Storage Modulators (AID 1519; calls by dose curve; also: % is scaled to controls: 0 for no effect and ±100 for the full control effect); conditions: Drosophila S3 cells, BODIPY lipid droplet/cell ratio, laser cytometry; at 57.5 µM (top of the series); cells loaded with oleic acid
Method in brief: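 Cells seeded at 5,000 per well were treated with compounds over a concentration series and loaded with oleic acid (400 uM, as added). Lipid droplet fluorescence (488 nm excitation, 500-530 nm channel) was read by laser-scanning cytometry and normalized to 20 uM Triacsin C.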

[11] = molecular target: Endonuclease 4 (Escherichia coli (strain K12)) (UniProt P0A6C1); assay: Counterscreen for APE1 Inhibitors: qHTS Validation Assay for Inhibitors of Endonuclease IV (AID 1708); also: % is scaled to controls: 0 for no effect and ±100 for the full control effect; conditions: E. coli endonuclease IV, DNA cleavage fluorescence; series mostly up to 57.1 µM
Method in brief: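 2 nM enzyme was preincubated with compounds for 15 min at room temperature in 50 mM Tris-HCl pH 7.5, 50 mM NaCl, 2 mM MgCl2, 1 mM DTT, 0.01% Tween-20. 50 nM THF-abasic TAMRA/BHQ-2 duplex substrate started the reaction.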

[12] = molecular target: Transient receptor potential cation channel subfamily V member 1 (Homo sapiens) (UniProt Q8NER1); assay: HTS Assay for Compounds that Act as Enhancers of the Vanilloid Receptor 1 (AID 488979); conditions: TRPV1-expressing cells, enhancer of channel activity, stimulated with capsaicin at EC20; series mostly up to 41.7 µM; also: 0% is about no effect
Method in brief: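 TRPV1-expressing cells loaded with Fluo-8 calcium dye; compounds added and calcium influx read kinetically for 3 min (agonist phase), then capsaicin at EC20 added and read 2 min more for enhancement. Fluorescence ex 480/em 520 nm.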

[13] = molecular target: D(1A) dopamine receptor (Homo sapiens) (UniProt P21728); assay: HTS Assay for Allosteric Agonists of the Human D1 Dopamine Receptor: Primary Screen for Potentiators (AID 488982); conditions: HEK293 T-REx D1 inducible cells, calcium flux, kinetic fluorescence; series mostly up to 8.37 µM; also: 0% is about no effect
Method in brief: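 Tetracycline-induced HEK293 T-REx cells force-coupled to calcium signalling were incubated overnight at 30 C and dye-loaded at room temperature. Calcium flux over 180 s after compound addition flagged agonists; a further 180 s read after EC20 dopamine flagged potentiators.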

[14] = Validation screen for small molecules that induce DNA re-replication in SW480 colon adenocarcinoma cells (AID 504364); conditions: DNA re-replication phenotype (high-content imaging); series mostly up to 46.1 µM; also: 0% is about no effect
Method in brief: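 Cells are treated 48 hr with test compound, stained 40 min with Hoechst at 37 C, and scanned for nuclear fluorescence; compounds inducing re-replication increase nuclei with elevated intensity.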

[15] = molecular target: Vitamin D3 receptor (Homo sapiens) (UniProt P11473); assay: qHTS assay for small molecule agonists of vitamin D receptor signaling (AID 588543; calls by dose curve;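 also: 0% = DMSO basal and 100% = reference agonist control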); conditions: HEK293T VDR-UAS-bla, beta-lactamase ratio, 16 h; activation: at 76.8 µM (top of the series)
Method in brief: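 Measured: β-lactamase reporter activity (CCF4, 405 nm excitation, 460/530 nm emission) in HEK293T VDR-UAS-bla cells after 16 h compound exposure at 37 °C. Normalization against 50 nM 1α,25-dihydroxyvitamin D3 and DMSO; Hill-fit EC50.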

[16] = HTS Assay for Allosteric Antagonists of the Human D2 Dopamine Receptor: Hit Validation in HTRF (AID 624455); conditions: Cells stably expressing D1 dopamine receptor, inhibition mode; at 46.1 µM (top of the series);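 also: stable D1 dopamine receptor cell line scored for blocking the D1 response; % is scaled to controls: 0 for no effect and ±100 for the full control effect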
Method in brief: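 Signal from an HTRF read-out in D1-expressing stable cells gave hit activity as inhibition of the D1 response.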

[17] = qHTS assay for small molecule agonists of the antioxidant response element (ARE) signaling pathway measured by Nrf2-dependant transcriptional activity - cell viability counter screen (AID 720653; active = well fitted curve in the direction sought with a large enough effect in the repeat runs; inconclusive = weak or mixed curves; inactive = no such curve, though single readings can be large; an effect the other way counts as inactive or inconclusive; also: % is scaled to controls: 0 for no effect and ±100 for the full control effect); conditions: ARE-bla HepG2 viability, CellTiter-Glo ATP luminescence, 16 h; max response: stronger effect = lower value
Method in brief: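 ARE-bla HepG2 cells (2,000/well) rested 5 hrs at 37C/5% CO2, then exposed to compounds in DMSO for 16 hrs. Viability was read in the same wells as intracellular ATP by luminescence, 30 min at room temperature after reagent addition.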

[18] = Natriuretic polypeptide receptor (hNpr1) antagonism - Pilot counterscreen GloSensor control cell line (AID 1347045; calls by dose curve; also: potency is read from the fitted curve at half-maximal effect); conditions: HEK293 cGMP GloSensor cells, SNP-stimulated luminescence, 20 min; series mostly up to 38.3 µM
Method in brief: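 This counterscreen uses HEK293 cells expressing the GIP/pGS-40F cGMP biosensor. Compound-treated cells are challenged with 50 uM sodium nitroprusside, and the luciferase signal is compared before and after stimulation.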

[19] = molecular target: Atrial natriuretic peptide receptor 1 (Homo sapiens) (UniProt P16066); assay: Natriuretic polypeptide receptor (hNpr1) antagonism - Pilot screen (AID 1347049; calls by dose curve;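 also: agonist-evoked cGMP luminescence read 20 min after hNppA addition; potency is read from the fitted curve at half-maximal effect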); conditions: hNpr1 cells, antagonist mode cGMP read-out; series mostly up to 57.5 µM
Method in brief: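 HEK293 cells co-expressing hNpr1 and the GloSensor pGS-40F cGMP luciferase sensor were preloaded with 2% GloSensor reagent for 2 h. Compounds were added for 30 min at room temperature, then cells were stimulated with 0.1 nM hNppA for 20 min before luminescence readout.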

[20] = Quantitative High-Throughput drug screen in 47 multiple myeloma cell lines against the NCATS MIPE library collection: Karpas620_DSMZ cell viability assay (AID 1918959); conditions: Karpas620 myeloma viability, CellTiter-Glo ATP luminescence, 48 h; viability (% of DMSO): at 45.8 µM (top of the series); also: potency is read from the fitted curve at half-maximal effect; nearly all actives have a fitted effect of over 30% in size
Method in brief: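 CellTiter-Glo luminescence (ATP) after 48 h compound exposure, 37C/5% CO2; 500 cells/well; MIPE 4.0 approved/investigational drugs pinned in; DMSO = 100%, media only = 0% viability.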
Tags tell the direction and shape of the fitted curve.

Chain of UniProt P08684 (P08684 whole entry, looked up): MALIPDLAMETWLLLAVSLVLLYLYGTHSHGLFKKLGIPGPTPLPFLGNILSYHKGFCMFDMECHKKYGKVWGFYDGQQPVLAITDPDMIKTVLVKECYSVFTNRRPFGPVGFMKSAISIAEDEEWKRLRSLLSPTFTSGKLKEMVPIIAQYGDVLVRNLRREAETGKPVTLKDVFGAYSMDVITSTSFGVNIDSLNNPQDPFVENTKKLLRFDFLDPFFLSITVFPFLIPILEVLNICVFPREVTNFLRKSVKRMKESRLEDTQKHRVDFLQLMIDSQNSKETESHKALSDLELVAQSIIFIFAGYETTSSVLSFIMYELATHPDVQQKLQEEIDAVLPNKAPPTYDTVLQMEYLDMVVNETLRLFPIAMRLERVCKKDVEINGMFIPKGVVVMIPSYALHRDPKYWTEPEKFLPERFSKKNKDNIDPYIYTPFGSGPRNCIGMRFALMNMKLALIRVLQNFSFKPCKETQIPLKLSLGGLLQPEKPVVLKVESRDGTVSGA
Chain of UniProt P10828 (P10828 whole entry, looked up): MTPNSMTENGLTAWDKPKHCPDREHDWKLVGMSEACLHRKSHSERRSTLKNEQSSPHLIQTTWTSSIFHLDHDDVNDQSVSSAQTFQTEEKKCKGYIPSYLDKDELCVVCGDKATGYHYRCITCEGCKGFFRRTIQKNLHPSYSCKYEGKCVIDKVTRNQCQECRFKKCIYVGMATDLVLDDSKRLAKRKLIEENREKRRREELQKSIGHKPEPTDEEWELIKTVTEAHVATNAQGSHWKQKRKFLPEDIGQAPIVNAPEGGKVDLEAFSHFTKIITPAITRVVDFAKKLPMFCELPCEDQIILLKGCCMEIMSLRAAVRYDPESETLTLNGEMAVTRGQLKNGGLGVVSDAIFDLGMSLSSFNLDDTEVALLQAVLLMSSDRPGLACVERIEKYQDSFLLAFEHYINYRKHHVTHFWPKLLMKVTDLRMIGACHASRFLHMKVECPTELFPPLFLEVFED
Chain of UniProt P21728 (P21728 whole entry, looked up): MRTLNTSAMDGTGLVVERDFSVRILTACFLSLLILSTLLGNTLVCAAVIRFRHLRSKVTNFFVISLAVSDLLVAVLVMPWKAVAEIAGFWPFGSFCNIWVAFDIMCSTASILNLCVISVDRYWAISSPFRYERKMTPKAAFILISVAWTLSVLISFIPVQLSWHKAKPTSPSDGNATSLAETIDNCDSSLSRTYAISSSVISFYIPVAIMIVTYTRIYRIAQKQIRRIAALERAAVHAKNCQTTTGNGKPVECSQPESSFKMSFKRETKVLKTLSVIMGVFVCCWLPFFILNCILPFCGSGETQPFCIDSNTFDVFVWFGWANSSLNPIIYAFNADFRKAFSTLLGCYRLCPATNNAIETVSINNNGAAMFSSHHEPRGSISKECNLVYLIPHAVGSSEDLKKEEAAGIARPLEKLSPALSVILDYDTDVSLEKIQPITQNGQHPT
Chain of UniProt Q8NER1 (Q8NER1 whole entry, looked up): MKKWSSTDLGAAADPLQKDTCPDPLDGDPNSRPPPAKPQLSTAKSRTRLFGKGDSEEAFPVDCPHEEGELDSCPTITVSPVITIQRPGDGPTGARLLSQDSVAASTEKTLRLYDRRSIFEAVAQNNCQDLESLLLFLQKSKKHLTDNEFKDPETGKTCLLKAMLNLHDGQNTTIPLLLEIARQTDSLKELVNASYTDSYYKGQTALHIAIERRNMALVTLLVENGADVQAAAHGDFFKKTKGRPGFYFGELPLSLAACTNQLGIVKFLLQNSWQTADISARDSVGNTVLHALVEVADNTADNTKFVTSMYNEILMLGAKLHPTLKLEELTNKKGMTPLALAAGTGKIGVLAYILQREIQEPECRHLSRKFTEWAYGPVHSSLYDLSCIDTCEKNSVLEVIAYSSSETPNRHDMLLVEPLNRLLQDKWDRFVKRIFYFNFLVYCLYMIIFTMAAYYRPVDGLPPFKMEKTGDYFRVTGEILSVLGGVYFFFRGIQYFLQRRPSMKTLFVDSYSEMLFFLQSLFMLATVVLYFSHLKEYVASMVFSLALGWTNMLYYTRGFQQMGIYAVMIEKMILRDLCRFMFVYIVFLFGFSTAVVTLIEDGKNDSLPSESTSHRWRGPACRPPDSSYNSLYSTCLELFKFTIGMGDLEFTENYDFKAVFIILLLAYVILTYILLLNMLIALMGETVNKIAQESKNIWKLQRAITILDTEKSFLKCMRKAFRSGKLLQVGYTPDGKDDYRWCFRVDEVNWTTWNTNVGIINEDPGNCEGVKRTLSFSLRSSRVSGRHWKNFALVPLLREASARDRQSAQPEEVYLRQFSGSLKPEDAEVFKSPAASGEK
Chain of UniProt P16066 (P16066 whole entry, looked up): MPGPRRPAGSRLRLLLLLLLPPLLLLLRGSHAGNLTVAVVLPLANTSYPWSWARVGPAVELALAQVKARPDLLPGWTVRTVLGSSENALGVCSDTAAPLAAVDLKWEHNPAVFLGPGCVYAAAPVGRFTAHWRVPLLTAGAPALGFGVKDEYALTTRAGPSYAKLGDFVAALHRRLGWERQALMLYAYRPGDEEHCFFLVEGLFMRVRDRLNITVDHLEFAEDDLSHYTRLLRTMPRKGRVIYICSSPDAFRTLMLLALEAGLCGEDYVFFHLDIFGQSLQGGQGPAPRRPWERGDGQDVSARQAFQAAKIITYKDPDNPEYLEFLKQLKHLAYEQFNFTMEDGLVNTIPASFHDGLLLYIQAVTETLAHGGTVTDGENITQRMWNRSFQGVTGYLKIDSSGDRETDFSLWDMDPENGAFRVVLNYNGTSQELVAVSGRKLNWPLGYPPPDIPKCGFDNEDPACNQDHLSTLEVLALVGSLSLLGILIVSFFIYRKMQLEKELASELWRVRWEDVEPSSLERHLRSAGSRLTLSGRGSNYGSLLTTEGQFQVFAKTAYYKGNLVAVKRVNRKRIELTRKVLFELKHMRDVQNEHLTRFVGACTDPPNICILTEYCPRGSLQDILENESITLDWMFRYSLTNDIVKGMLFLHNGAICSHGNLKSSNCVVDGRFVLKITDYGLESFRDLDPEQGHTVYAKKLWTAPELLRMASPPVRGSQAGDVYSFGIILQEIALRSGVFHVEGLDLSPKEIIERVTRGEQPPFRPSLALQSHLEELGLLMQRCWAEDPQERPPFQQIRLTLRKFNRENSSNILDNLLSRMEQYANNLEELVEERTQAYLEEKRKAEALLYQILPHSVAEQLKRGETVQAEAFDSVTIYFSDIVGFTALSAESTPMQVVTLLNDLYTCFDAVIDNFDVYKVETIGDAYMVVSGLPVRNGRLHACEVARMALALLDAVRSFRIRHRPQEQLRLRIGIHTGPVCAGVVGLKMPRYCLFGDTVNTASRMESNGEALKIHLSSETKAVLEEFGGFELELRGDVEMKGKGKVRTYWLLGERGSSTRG

| SMILES | Potency [1] | activity change, negative = inhibition [2] | activation [3] | Potency [4] | Potency [5] | activity change, negative = cytotoxicity [6] | Potency [7] | Potency [8] | Potency [9] | activity change, negative = inhibition [10] | Potency [11] | Potency [12] | Potency [13] | Potency [14] | activation [15] | activity, negative = inhibition [16] | max response [17] | Potency [18] | Potency [19] | Potency [20] |
| --- | --- | --- | --- | --- | --- | --- | --- | --- | --- | --- | --- | --- | --- | --- | --- | --- | --- | --- | --- | --- |
| Oc1ccc(Cl)cc1Cc1cc(Cl)ccc1O | inconclusive: 79.4 µM [rising, single point] | inconclusive: -39.1% | inconclusive: -31.1% | inactive | inconclusive: 22.4 µM [cytotoxic, partial curve, poor fit] |  |  |  |  |  |  |  |  |  |  |  |  |  |  |  |
| CC(=O)[C@H]1CC[C@H]2[C@@H]3CCC4=CC(=O)CC[C@]4(C)[C@H]3CC[C@]12C |  |  |  |  |  | inconclusive: -48.5% and active: -129% | inconclusive: 3.98 µM [activator, full curve] | inconclusive: 50.1 µM [cytotoxic, partial curve] | active: 15.8 µM | inactive: 1.11% and inconclusive: 12.7% | inactive | inactive | inactive | inactive | inconclusive: -12.3% | inactive: 3.75% | inactive: -18% and inactive: -11.7% and inactive: -23.6% | inconclusive: 26.1 µM [inhibitor, single point] | inconclusive: 6.01 µM [inhibitor, single point] | inconclusive: 0.003 µM [rising, full curve, poor fit] |
